Experimental data reported in patent US20250295801A1, “CD25 ANTIBODIES, ANTIBODY DRUG CONJUGATES, AND USES THEREOF” (Seagen Inc., priority 2024, published 2025).

What was measured:
L540cy cells = test: In vitro cytotoxicity towards CD25-expressing lymphoma cells (CellTiter-Glo); type: cell-based, human; conditions: 96 hours
Description: Cells were incubated with ADCs for 96 hours at 37° C. A non-binding ADC was included as a negative control. Cell viability was measured using CellTiter-Glo (Promega) according to the manufacturer's instructions. Cells (ca. 500-1000 cells/well) were seeded onto a 96-well culture plate with a clear bottom in culture medium. Dilutions of ADC were added to each well (2000 ng/mL to 0 ng/mL) and the samples were incubated for 96 hours at 37° C. Luminescence was measured using a plate reader (Envision 4605). The data was fit using Graph Pad software and an IC50 was calculated.

L540cy xenograft = test: In vivo efficacy in cell line xenograft model; design: species or system SCID mice; conditions: L540cy cell line-derived xenograft; FIG. 4A, 4C, 4D
Description: (§1) The in vivo efficacy of CD25 ADCs was evaluated in three xenograft models that express CD25 (DEL, L82, L540cy) in either SCID (DEL, L540cy) or NSG mice (L82). To conduct the efficacy experiments, 5×10^6 cells were injected subcutaneously into 5 female mice per group. Mice were randomly divided to study groups and dosed with test article via intraperitoneal injection once the tumors reached approximately 100 mm^3. For the L82 model in NSG mice, all mice were pre-treated with 10 mg/kg human IVIG 24 hours prior to treatment. Animals were euthanized when tumor volumes reach 800-1000 mm^3. Tumor volume was calculated with the formula (volume=1/2×length×width×width). Mice showing durable regressions were terminated around day 60.

purified human Tregs = test: In vitro cytotoxicity towards purified human Treg cells; type: cell-based
Description: (§2) Purified human Tregs or CD8 T cells (acquired from either Astarte, Bothell, WA or […] Technologies, Vancouver, BC, Canada) were cultured in the presence of anti-CD3/CD28 beads (ThermoFisher) and incubated with ADCs for 96 hours. Cell viability was assessed using Cell Titer-Glo (Promega, Madison, WI).

cynomolgus monkeys = test: Repeat-dose toxicology study and Treg depletion in non-human primates; type: in vivo, cynomolgus monkey
Description: To evaluate and compare Treg depletion of CD25 antibody clone 123 MMAE ADC, detuned CD25 antibody SG25Ab-9 MMAE ADC and a non-binding IgG1 MMAE ADC, male cynomolgus macacques were administered an intravenous bolus dose of 6 mg/kg ADC on days 1, 22, and 43. Exploratory FACS analysis was performed on peripheral blood samples to evaluate effects on leukocyte subpopulations and potential toxicity.
Samples used for flow cytometric analysis were collected in EDTA-coated tubes twice during acclimation on days −12 and −7, and at 48, 96, 168, and 336 hrs post-Day 1 dose, prior to dosing on Days 22 and 43, and at 48, 96, and 168 hrs post-Day 43 dose. […]
To prepare cells for FACS analysis, one vial of each sample was thawed at 37° C. and transferred into 1 ml of RPMI 1640+10% FBS (R10) media in a deep well 96-well plate. […] Cells were then resuspended in 150 μL staining buffer and analyzed on an NXT Attune flow cytometer. Flow cytometry data was analyzed using FlowJo software. […] Absolute numbers were calculated by multiplying the total lymphocyte count acquired from hematology (cells/L×109) on fresh whole blood with the frequency of each lymphocyte subpopulation within the live/single cell/lymphocyte gate determined through flow cytometry. […]

[1] = system: Tregs in tumors, spleen and PBMC; test: Treg depletion in MC38 tumor-bearing human CD25 transgenic mice (flow cytometry); type: in vivo, mouse
Description: To test ADC-mediated antitumor activity and Treg depletion in a syngeneic tumor model, the C57BL/6-Il2ratml(IL2RA) mice were implanted with subcutaneous MC38 murine colon carcinoma tumors. When tumors reached ˜80-100 mm^3, ADCs were administered at a dose of 1 mg/kg every three days for a total of 3 doses. ADC activity was compared to an anti-PD1 control and IgG1 ADC control. To assess the extent of Treg depletion in tumors compared to spleen and PBMC, mice were administered anti-CD25 ADC at a dose of either 3, or 6 mg/kg every three days for a total of 3 doses and compared to an IgG1 ADC control. The impact to Tregs was assessed in tumors, spleen, and PBMC by flow cytometry at 2 days post the second dose.
The Treg depletion by CD25 antibody SG25Ab-9 MMAE ADC was measured in a colon cancer (MC38) xenograft model of a human CD25 transgenic mouse. […] Two days after the third dose, untreated mice were analyzed for CD25 expression by flow cytometry.

L82 xenograft = test: In vivo efficacy in cell line xenograft model; design: species or system NSG mice; conditions: FIG. 4B, FIG. 11A at 1.2 mg/kg
Description: as §1

[2] = system: CD25hi Tregs and CD25lo Tregs; test: Treg suppression assay (Treg CD8+ co-culture); type: cell-based, human; conditions: Tregs to CD8+ T cells 1:2, CD3/CD28 beads, 4 days, 1, 3 or 10 μg/mL; FIG. 18B
Description: A Treg suppression assay was performed using the human Treg Suppression Inspector Kit (Miltenyi #130-092-909) according to manufacturer instructions. Cryopreserved human peripheral blood CD8+ T cells (Stem Cell Technologies, 200-0164) and CD4+CD25+CD127low Tregs (Stem Cell Technologies, 200-0123) from 2 normal donors were thawed and CD8+ T cells were labeled with Cell Trace™ CFSE dye (Invitrogen). Cells were mixed at ratio of Tregs to CD8+ T cells (1:2) in 96-well round-bottom plates, stimulated with CD3/CD28 beads (Treg suppression inspector kit, Miltenyi #130-092-909), and treated with CD25 antibody SG25Ab-9 or detuned CD25 antibody SG25Ab-9 YH98A MMAE ADC, at 1, 3 or 10 μg/mL, as well as non-targeting control (Isotype ADC) at 10 mg/mL. After 4 days of incubation at 37C and 5% CO2, cells were collected, washed in PBS, and stained with a Zombie Aqua viability dye (Biolegend #423102) for 15 minutes at room temperature. Cells were then washed in PBS with 2% FBS and stained with anti-hCD25-PE (Biolegend #302606), anti-hCD3-PE/Cy7 (Biolegend #300316), anti-hCD8-AF700 (Biolegend (#344724), and anti-CD4-APC Fire 750 (Biolegend #344638) for 30 minutes at 4C. Cells were washed twice, resuspended in cell staining buffer and acquired on an Attune NxT flow cytometer and Ultracomp ebeads Compensation Beads (ThermoFisher #01-2222-42) were used to compensate multi-fluorochromes.

[3] = system: purified human CD8 T cells; test: In vitro cytotoxicity towards purified human CD8 T cells; type: cell-based
Description: as §2

B1: SG25Ab-9 MMAE ADC (conjugate)
heavy: QVQLVQSGAEVKKPGESLKISCKGSGYSSTSYWIGWVRQMPGKGLEWMGIIYPGDSDTRYSPSFQGQVTISADKSISTAYLQWSSLKASDTAMYYCARLGSYYAFDIWGRGTMVTVSS[human IgG1 constant region left out here]
light: QSALTQPASVSASPGQSITISCTGTSSDVGAYIYVSWYQQLSGKPPKLILYDVSKRPSGISDRFSGSKSGNTASLTISGLQADDEADYYCSSYTRSSTWVFGGGTQLTVLGQPKAAPSVTLFPPSSEELQANKATLVCLISDFYPGAVTVAWKADSSPVKAGVETTTPSKQSNNKYAASSYLSLTPEQWKSHRSYSCQVTHEGSTVEKTVAPTECS
modifications: non-natural residues
B1 was tested, and the in vitro cytotoxicity (L540cy cells) was “anti-tumor activity towards L540cy cells similar to CD30 antibody cAC10 MMAE ADC”, the “in vivo anti-tumor activity” value (L540cy xenograft) was “showed in vivo anti-tumor activity” and the “effect on Treg cells from human peripheral blood” value (purified human Tregs; FIG. 5A, 5C) was “killed Tregs”. For the same molecule, the “in vitro cytotoxicity towards purified human Treg cells” value (purified human Tregs; stimulated with CD3/CD28 beads, 96 hours, FIG. 13A) was “less cytotoxic towards purified human Treg cells than CD25 antibody SG25Ab-9 tesirine ADC”, the tolerability (cynomolgus monkeys; 6 mg/kg bolus intravenous once every three weeks, three doses) was “well tolerated” and the “peripheral Treg cells compared to baseline” value (cynomolgus monkeys; 6 mg/kg intravenous q3wx3, FIG. 17A) was “marked decrease in Treg cells compared to baseline; also recorded: significant and prolonged reductions in Treg frequency with no recovery at any time points”. The “Treg cells in the tumor (intratumoral Tregs)” value ([1]; 3 or 6 mg/kg, FIG. 16C, 16E) was “substantially reduced Treg cells in the tumor”, the “Treg cells in PBMC” value ([1]; FIG. 16A) was “reduced Treg cells in PBMC and splenocytes” and the “Treg cells in splenocytes” value ([1]; FIG. 16B) was “reduced Treg cells in PBMC and splenocytes”. For the same molecule, the “in vivo anti-tumor activity” value (L82 xenograft) was “showed in vivo anti-tumor activity”, the “CD25hi Tregs and CD25lo Tregs counts” value [2] was “kills Tregs, regardless of CD25 expression levels” and the “effect on CD8 T cells from human peripheral blood” value ([3]; FIG. 5B, 5D) was “did not impact CD8 T cells”. For the same molecule, the “in vitro cytotoxicity towards purified human CD8 T cells” value ([3]; anti-CD3/CD28 beads, 96 hours, FIG. 13B) was “not cytotoxic towards purified human CD8 T cells”.

Entries after “also recorded” stand apart in the source; their conditions may differ.
